About 220 (0.56%) of roughly 39,000 compounds showed activity. Some of the results follow.
test system: Escherichia coli K-12 BW25113; assay: relative growth (OD600 normalised to plate interquartile mean) (fraction); higher = less growth inhibition, active = 0.2 or less; conditions: 50 µM; LB; incubation time: overnight (16-24 h)
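Further: static incubation at 37 °C against the wild-type strain, values averaged over two biological replicates.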

Row | SMILES | relative growth
1 | NCCCCCc1nnc(SCC(N)=O)o1 | inactive: 0.989
2 | C[C@@H]1CN([C@@H](C)CO)C(=O)c2cccc(NC(=O)c3ccncc3)c2O[C@H]1CN(C)Cc1ccc(C(=O)O)cc1 | inactive: 1.01
3 | COc1ccc(NC(=O)Nc2ccc3c(c2)[C@H]2C[C@@H](CC(=O)NCc4ccncc4)O[C@@H](CO)[C@H]2O3)cc1 | inactive: 1.03
4 | C[C@@H]1CN([C@@H](C)CO)C(=O)c2cc(NC(=O)CCC(F)(F)F)ccc2O[C@H]1CN(C)Cc1ccc(Cl)c(Cl)c1 | inactive: 1
5 | Nc1nc(=O)c2ncn(COCCO)c2[nH]1 | inactive: 1
6 | CO[C@H](C(=O)N(C)C[C@@H]1OCc2ccccc2-c2c(n(C)c3ccccc23)C(=O)N([C@H](C)CO)C[C@@H]1C)c1ccccc1 | inactive: 0.973
7 | C[C@@H]1COC(=O)[C@H](CC(=O)OC(C)(C)C)CC=CC[C@@H](CC(=O)N[C@@H](CO)Cc2ccccc2)C(=O)N1 | inactive: 0.996
8 | Cc1ccc(S(=O)(=O)Nc2ccc3c(c2)C(=O)N([C@H](C)CO)C[C@@H](C)[C@@H](CN(C)C(=O)c2ccccc2)OCCCC[C@H](C)O3)cc1 | inactive: 1.01
9 | O=S(=O)(NCC[C@H]1CC[C@@H](NS(=O)(=O)c2ccccc2Cl)[C@@H](CO)O1)c1ccc(F)cc1 | inactive: 0.952
10 | CC(C)NC(=O)Nc1cccc2c1O[C@@H](CN(C)Cc1ccc3c(c1)OCO3)[C@H](C)CN([C@H](C)CO)C2=O | inactive: 0.999
11 | CC1(C)CO[C@@H](CC(=O)O)CN1 | inactive: 0.935
12 | C[C@@H]1CN([C@H](C)CO)S(=O)(=O)c2ccc(C#CC(C)(C)O)cc2O[C@@H]1CN(C)C(=O)C1CCCCC1 | inactive: 0.947
13 | COc1ccc(CN(C)C[C@@H]2Oc3ccc(NC(=O)Nc4ccc(C(F)(F)F)cc4)cc3C(=O)N([C@H](C)CO)C[C@H]2C)cc1 | inactive: 0.972
14 | NC1=NN(c2ccccc2)C(=O)C1 | inactive: 0.896
15 | NC[C@H](c1cccc(F)c1)N1CCCCC1 | inactive: 0.951
16 | C[C@@H]1CN([C@H](C)CO)C(=O)Cc2cc(NC(=O)Cc3cn(C)c4ccccc34)ccc2O[C@@H]1CN(C)S(C)(=O)=O | inactive: 1
17 | COCCNC(=O)C[C@@H]1CC[C@H]2[C@@H](COC[C@@H](O)CN2C(=O)Nc2ccc3c(c2)OCO3)O1 | inactive: 0.987
18 | CCNC(=O)CCC(N)C(=O)[O-].[K+] (configuration not stated) | inactive: 0.934
19 | C[C@@H]1CN([C@H](C)CO)C(=O)CCCn2nncc2CO[C@H]1CN(C)S(=O)(=O)c1cccc(C#N)c1 | inactive: 1.02
20 | CC(C)NC(=O)N(C)C[C@@H]1Oc2ccc(NC(=O)Nc3ccc4c(c3)OCO4)cc2CC(=O)N([C@@H](C)CO)C[C@H]1C | inactive: 0.995
21 | CC[C@@H](C)NC(=O)C1CCNCC1 | inactive: 0.989

Row | SMILES | relative growth
22 | CO[C@H]1CN(C)C(=O)c2cc(NC(=O)CC(F)(F)F)ccc2OC[C@@H](C)N(S(=O)(=O)c2cn(C)cn2)C[C@@H]1C | inactive: 1.02
23 | CC(C)NC(=O)N(C)C[C@H]1Oc2ccc(NS(=O)(=O)c3cn(C)cn3)cc2C(=O)N([C@@H](C)CO)C[C@@H]1C | inactive: 0.999
24 | O=C(C[C@@H]1C[C@@H]2c3cc(NS(=O)(=O)c4ccc(F)cc4)ccc3O[C@@H]2[C@@H](CO)O1)N1CCCCC1 | inactive: 1
25 | Cc1noc(C)c1NC(=O)Nc1ccc2c(c1)C(=O)N([C@H](C)CO)C[C@H](C)[C@@H](CN(C)C(=O)Nc1ccccc1)OCCCC[C@H](C)O2 | inactive: 0.971
26 | C[C@@H]1CCCCO[C@H](CN(C)S(=O)(=O)c2ccc(Cl)cc2)[C@H](C)CN([C@H](C)CO)C(=O)c2cc(NC(=O)NC3CCCCC3)ccc2O1 | inactive: 1.03
27 | C[C@H]1CN([C@@H](C)CO)C(=O)c2ccccc2-c2ccccc2CO[C@@H]1CN(C)C(=O)Nc1ccc(F)cc1 | inactive: 0.987
28 | N=C(N)N.O=C(O)O | inactive: 1
29 | COc1ccccc1CNC(=O)C[C@@H]1C[C@H]2c3cc(NC(=O)Nc4ccc(C(F)(F)F)cc4)ccc3O[C@H]2[C@@H](CO)O1 | inactive: 0.993
30 | C=CCOC[C@@H]1CN(C)Cc2nnn(C)c21 | inactive: 0.998
31 | O=C(C[C@@H]1C[C@@H]2c3cc(NC(=O)c4ccc5c(c4)OCO5)ccc3O[C@@H]2[C@@H](CO)O1)NCc1ccccn1 | inactive: 1.02
32 | C/C=C/c1ccc2c(c1)O[C@@H](CN(C)C(=O)c1ccc3c(c1)OCO3)[C@H](C)CN([C@H](C)CO)S2(=O)=O | inactive: 0.997
33 | Cc1noc(C)c1NC(=O)Nc1ccc2c(c1)C(=O)N([C@H](C)CO)C[C@H](C)[C@@H](CN(C)CC1CC1)OCCCC[C@@H](C)O2 | inactive: 0.995
34 | CN(C)Cc1cn(CC[C@@H]2CC[C@@H](NC(=O)Cc3cccnc3)[C@H](CO)O2)nn1 | inactive: 0.991
35 | C[C@H]1CN([C@@H](C)CO)C(=O)c2cc(NS(=O)(=O)c3cn(C)cn3)ccc2O[C@@H]1CN(C)CC1CCCCC1 | inactive: 0.998
36 | Cc1noc(C)c1S(=O)(=O)Nc1cccc2c1O[C@@H](CN(C)S(=O)(=O)c1cn(C)cn1)[C@@H](C)CN([C@H](C)CO)C2=O | inactive: 0.974
37 | COc1ccc(S(=O)(=O)N(C)C[C@H]2Oc3c(NS(=O)(=O)c4ccc(F)cc4)cccc3C(=O)N([C@@H](C)CO)C[C@H]2C)cc1 | inactive: 0.994
38 | COc1cccc(C#Cc2ccc3c(c2)O[C@H](CN(C)S(=O)(=O)c2ccccc2F)[C@@H](C)CN([C@@H](C)CO)S3(=O)=O)c1 | inactive: 1.01
39 | CC(C)NC(=O)N[C@H]1CC[C@H](CCN)O[C@H]1CO | inactive: 1.01
40 | O=C(Oc1cc(O)cc2c1C[C@@H](OC(=O)c1cc(O)c(O)c(O)c1)[C@@H](c1cc(O)c(O)c(O)c1)O2)c1cc(O)c(O)c(O)c1 | inactive: 0.82
41 | C[C@H]1CN([C@@H](C)CO)C(=O)c2cccc(NC(=O)CCCCCC(=O)Nc3ccccc3N)c2O[C@H]1CN(C)C(=O)Nc1ccc(C(F)(F)F)cc1 | inactive: 1.01
42 | Cc1ccc(S(=O)(=O)Nc2ccc3c(c2)C(=O)N([C@@H](C)CO)C[C@@H](C)[C@@H](CN(C)Cc2ccc(Cl)c(Cl)c2)OCCCC[C@@H](C)O3)cc1 | inactive: 1.02
